The other results are listed elsewhere or left out. At the low end of the ranking, values are background and their order means little. The protein was read in a cell extract, so binding may be indirect.

The values below come from article PMC10726135.

The experiment addresses T1, HNF4alpha2 (COS-7 nuclear extract) (UniProt P41235).
T1 sequence: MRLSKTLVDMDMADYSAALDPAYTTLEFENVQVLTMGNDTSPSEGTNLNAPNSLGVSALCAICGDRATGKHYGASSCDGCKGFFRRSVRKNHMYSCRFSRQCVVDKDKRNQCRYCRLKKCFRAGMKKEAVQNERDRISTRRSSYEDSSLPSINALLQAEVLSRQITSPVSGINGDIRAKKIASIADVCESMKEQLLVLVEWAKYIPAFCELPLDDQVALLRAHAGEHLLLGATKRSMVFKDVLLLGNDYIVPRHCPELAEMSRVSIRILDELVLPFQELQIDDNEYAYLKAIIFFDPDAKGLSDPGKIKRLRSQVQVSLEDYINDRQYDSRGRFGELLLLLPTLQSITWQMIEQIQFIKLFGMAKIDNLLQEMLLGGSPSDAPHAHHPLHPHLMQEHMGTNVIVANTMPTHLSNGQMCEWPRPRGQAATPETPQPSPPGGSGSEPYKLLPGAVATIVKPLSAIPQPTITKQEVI
The experiment is described as follows: protein-binding microarray. The note with it: COS-7 nuclear extract on double-stranded Agilent 4x180k PBM; binding buffer, salt, pH and temperature not given; high values mean tight binding; double strand, one strand shown; sequences stand for … in …GCCTAGGGAGATTAGAGTATCGGTCGA
For CTTCACTGACGAAACTCACATACTGTGGAC, the binding signal (log2 normalized intensity) is 0.966.

Take GATGATTGTCCCTTTTCTATCCAGATGATC: the binding signal (log2 normalized intensity) is 1.48.

With CTTGGACTCTGAAGGAATGTAAACTCCAAG, the binding signal (log2 normalized intensity) was 0.219.

In the case of ACCTCCCTGGGCATGTCTGCTCCCTGAGTT, the binding signal (log2 normalized intensity) worked out at 1.1.

As for ACCTCTTATCAAGCGTGCACCCCAGGTACG, the binding signal (log2 normalized intensity) was found to be 1.17.

For the sequence TAGGAATCTTCAAGGCCTACCTTGGGTTCT, the binding signal (log2 normalized intensity) was 1.07.

For the sequence GTCCTATGACCCTGCCAAATCCCCCTCTGC, the binding signal (log2 normalized intensity) was found to be 4.58.

For CCCTCTGATATTGGGTGAGTGTTAGAGCAC, the binding signal (log2 normalized intensity) turned out to be 0.74.

For ATAGCATGCCACGATGATTAGCTGACTTTA, the binding signal (log2 normalized intensity) was -1.08.

Regarding TGCTCAGGGAGAAGCAAATATGTGTCCTCT, the binding signal (log2 normalized intensity) stood at 0.314.

Take TGGCTTTTGCCCTCAAGGAGTTTTAGATTA: the binding signal (log2 normalized intensity) was 1.21.

As for TAGGCATGCAAACTTTGTTTAATGATTGCA, the binding signal (log2 normalized intensity) was -0.637.

Consider TCACCTCGCTCCCCTCCTGTCAGTTTATTT, for which the binding signal (log2 normalized intensity) turned out to be 2.2.

As to TGCTCTTTATCAGCACCAAGAACAAACAAA, the binding signal (log2 normalized intensity) was -1.26.

As for CTGTGAATTCTTAAGCCAAAGTCCAAGTTG, the binding signal (log2 normalized intensity) was 3.94.

For the sequence TTGTACAAAGGTCCTGTGGGGCCCAGAGCC, the binding signal (log2 normalized intensity) is -0.258.

With GCCGGAAAAAGTGAGGAGCAGCAGAGAGTC, the binding signal (log2 normalized intensity) was -1.24.

Turning to CACACCTGGCTATTCAGTTTTTATTTTGTA, the binding signal (log2 normalized intensity) is 0.589.

Regarding CTTAGGCTTTTGCACTTTACTCAGAAAGGT, the binding signal (log2 normalized intensity) stood at 2.52.

With AGTCATCCATCATTCATACATTTGCCTGAA, the binding signal (log2 normalized intensity) was determined as 0.634.

As to CAAAGGACAGCAGTAGAAAACAGAGAAGCC, the binding signal (log2 normalized intensity) was -1.21.

In the case of TAGCCCTGCAGTGTATGACACAGCCACAAA, the binding signal (log2 normalized intensity) was -1.17.

As for GTGCTTAGTATGTGCTAGGCATTTTATAGT, the binding signal (log2 normalized intensity) was determined as 1.09.

Consider TAGCTTTAAAGACCAAAGATCACAGTGAAG, for which the binding signal (log2 normalized intensity) stood at 2.11.

On to AGTTCCAGAAGACTACAAATTCCTCAATCC, for which the binding signal (log2 normalized intensity) was -1.1.

On to GTTAACCTCCTATGATCTTTCATTCCTATT, for which the binding signal (log2 normalized intensity) was -1.22.

In the case of AATGCTGGAGTTAAAGCTTTGAGGAACTAG, the binding signal (log2 normalized intensity) was -1.19.

TACTTATGGTTTGACCCTGCGATAAGTAGA: the binding signal (log2 normalized intensity) amounted to 1.91.

Take ATGACCTCTGCACCCTTCCCTGAGTTTCCA: the binding signal (log2 normalized intensity) was 2.73.

Turning to GAGGGTAGAGGAGCCAGAGGGGCCAGGAAC, the binding signal (log2 normalized intensity) is -1.19.

For CTGATTTAGCTATTTGACCTTCGGCCTCAA, the binding signal (log2 normalized intensity) amounted to 8.16.

Take AAAAGAGTTGCTCAAACCAACATTATTAGC: the binding signal (log2 normalized intensity) was -1.15.

Take GAGTCTGTTGCAAGCAATGGAGAGGATTTT: the binding signal (log2 normalized intensity) was determined as 0.418.

With TGGAACCTGTCTGACAGGATGAATTTATTG, the binding signal (log2 normalized intensity) came to 0.0101.

For AGGATGTGTGCTCGAGGTGGACTTTCCCCC, the binding signal (log2 normalized intensity) turned out to be 6.07.

Consider AACTCAGTGAGGGCTATTGACAAAGACCAG, for which the binding signal (log2 normalized intensity) was -1.08.

For AAAGGAAGGAATTTACTGCAGTCAGGGGTT, the binding signal (log2 normalized intensity) was -0.248.

For the sequence GATAAGAATTTTGTGCAATTACACAACTTC, the binding signal (log2 normalized intensity) is -0.884.

As for TATTTTCTTATCTGCCTAGGCATTTGGCTG, the binding signal (log2 normalized intensity) was -1.06.

As for GTTGACATTTGAACCCAACCGTCCAGAGTC, the binding signal (log2 normalized intensity) turned out to be 2.44.
